Values marked as one replicate rest on one cluster of the flow cell; about a third of the high ones do not repeat.
test system: ATP; experiment: switch fluorescence ratio, 500 uM ATP over buffer (Cy3 cluster intensity, sum of 5 cycles each) (fold (ratio)); higher = stronger signal-on switching upon ATP binding; sequences stand for … in TCGTCGGCAGCGTCAGATGTGTATAAGAGACAGTTTTTTTTTTTTTTTTTTTTTTTTT…TC; settings: aptamer strand: ATP DNA aptamer (quencher-CACCTGGGGGAGTATTGCGGAGGAAGG + anchor), 100 nM annealed; ATP concentration: 500 uM; one replicate
Summary of the method: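 Switching-strand clusters labelled with Cy3 on a modified Illumina MiSeq flow-cell were annealed to 100 nM quencher-labelled ATP aptamer, imaged in selection buffer, and re-imaged after 15 min with 500 uM ATP at 22 °C. This was done over five cycles with NaOH stripping and re-annealing in between. The fluorescence ratio is summed target-cycle over summed buffer-cycle Cy3 intensity per cluster, averaged per switch-domain sequence, excluding clusters outside 100-1000 RFU.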
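Note: ATP exposure 15 min at 22 °C before imaging.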

Q: How did the switch fluorescence ratio turn out when GGCGGTAGGC was run?
A: 1.01

Q: For GGCGGTCTAT, which switch fluorescence ratio is on record?
A: 1

Q: How did the switch fluorescence ratio turn out when GGCGGTGTTG was run?
A: 1.01

Q: For GGCGGTTAGC, which switch fluorescence ratio is on record?
A: 0.983

Q: With GGCGGTTGAG as the sequence, how does the switch fluorescence ratio read?
A: 0.961

Q: Which switch fluorescence ratio does the source give for GGCGTACGCA here?
A: 1.05

Q: With GGCGTATGGC as the sequence, how does the switch fluorescence ratio read?
A: 1.03

Q: With GGCGTCCCCT as the sequence, how does the switch fluorescence ratio read?
A: 1.05

Q: GGCGTGGAAA was tested. Which switch fluorescence ratio did it give?
A: 1.06

Q: How did the switch fluorescence ratio turn out when GGCGTGGTG was run?
A: 1.45

Q: How did the switch fluorescence ratio turn out when GGCGTGTGA was run?
A: 0.998

Q: With GGCTAGAACT as the sequence, how does the switch fluorescence ratio read?
A: 1.01

Q: With GGCTATAAAC as the sequence, how does the switch fluorescence ratio read?
A: 1.04

Q: For GGCTATATCA, which switch fluorescence ratio is on record?
A: 0.984

Q: For GGCTCATTTT, which switch fluorescence ratio is on record?
A: 1.03

Q: With GGCTCCATAG as the sequence, how does the switch fluorescence ratio read?
A: 1.13

Q: Which switch fluorescence ratio does the source give for GGCTCCTTCG here?
A: 1.28

Q: GGCTCTCATT was tested. Which switch fluorescence ratio did it give?
A: 0.978

Q: For GGCTGACTAG, which switch fluorescence ratio is on record?
A: 0.977

Q: How did the switch fluorescence ratio turn out when GGCTGAGTC was run?
A: 1.02

Q: Which switch fluorescence ratio does the source give for GGCTGATAGG here?
A: 1

Q: With GGCTGCAAAC as the sequence, how does the switch fluorescence ratio read?
A: 5.19

Q: With GGCTGCTTG as the sequence, how does the switch fluorescence ratio read?
A: 0.931

Q: GGCTGGAATT was tested. Which switch fluorescence ratio did it give?
A: 0.943

Q: How did the switch fluorescence ratio turn out when GGCTGGCCCG was run?
A: 0.973

Q: For GGCTGGCTTT, which switch fluorescence ratio is on record?
A: 1.01

Q: For GGCTGTAAGA, which switch fluorescence ratio is on record?
A: 1.02

Q: Which switch fluorescence ratio does the source give for GGCTGTCCAA here?
A: 0.991

Q: Which switch fluorescence ratio does the source give for GGCTGTCTAT here?
A: 0.993

Q: With GGCTGTGCGG as the sequence, how does the switch fluorescence ratio read?
A: 0.99

Q: GGCTGTGGGG was tested. Which switch fluorescence ratio did it give?
A: 0.952

Q: For GGCTGTTATA, which switch fluorescence ratio is on record?
A: 0.976

Q: For GGCTTAGCGT, which switch fluorescence ratio is on record?
A: 1.03

Q: With GGCTTAGCTG as the sequence, how does the switch fluorescence ratio read?
A: 1.04

Q: How did the switch fluorescence ratio turn out when GGCTTAGTAA was run?
A: 1.03

Q: GGCTTATACC was tested. Which switch fluorescence ratio did it give?
A: 1.05

Q: For GGCTTGACTT, which switch fluorescence ratio is on record?
A: 1.01

Q: How did the switch fluorescence ratio turn out when GGCTTGATTC was run?
A: 0.95

Q: GGCTTGCCTA was tested. Which switch fluorescence ratio did it give?
A: 1.01

Q: With GGCTTGTGCG as the sequence, how does the switch fluorescence ratio read?
A: 0.989

Q: How did the switch fluorescence ratio turn out when GGCTTTAAG was run?
A: 1.01

Q: For GGCTTTATGT, which switch fluorescence ratio is on record?
A: 1.05

Q: With GGCTTTCGGA as the sequence, how does the switch fluorescence ratio read?
A: 0.981

Q: GGCTTTGAG was tested. Which switch fluorescence ratio did it give?
A: 0.972

Q: How did the switch fluorescence ratio turn out when GGCTTTTACA was run?
A: 0.973

Q: With GGCTTTTAGA as the sequence, how does the switch fluorescence ratio read?
A: 0.985

Q: Which switch fluorescence ratio does the source give for GGGAAACAGG here?
A: 1.05

Q: How did the switch fluorescence ratio turn out when GGGAAAGAAG was run?
A: 0.971

Q: For GGGAAATAAC, which switch fluorescence ratio is on record?
A: 1.05

Q: GGGAAATCCT was tested. Which switch fluorescence ratio did it give?
A: 1.12

Q: For GGGAACAAAA, which switch fluorescence ratio is on record?
A: 0.952

Q: With GGGAACGTT as the sequence, how does the switch fluorescence ratio read?
A: 1.16

Q: Which switch fluorescence ratio does the source give for GGGAAGCTCG here?
A: 0.95

Q: GGGAAGGACG was tested. Which switch fluorescence ratio did it give?
A: 1.02

Q: How did the switch fluorescence ratio turn out when GGGAAGTGGG was run?
A: 1.02

Q: For GGGAATATAC, which switch fluorescence ratio is on record?
A: 1.12

Q: GGGAATCCGT was tested. Which switch fluorescence ratio did it give?
A: 0.945

Q: GGGACACCTT was tested. Which switch fluorescence ratio did it give?
A: 1.07

Q: With GGGACACGAT as the sequence, how does the switch fluorescence ratio read?
A: 1.05

Q: How did the switch fluorescence ratio turn out when GGGACAGCGA was run?
A: 1.08

Q: How did the switch fluorescence ratio turn out when GGGACAGCGC was run?
A: 1.04

Q: Which switch fluorescence ratio does the source give for GGGACAGTCC here?
A: 0.962

Q: For GGGACCCGCA, which switch fluorescence ratio is on record?
A: 1.19

Q: How did the switch fluorescence ratio turn out when GGGACCCGTC was run?
A: 0.943

Q: For GGGACCTTAG, which switch fluorescence ratio is on record?
A: 0.982

Q: For GGGACTCGCG, which switch fluorescence ratio is on record?
A: 0.982

Q: How did the switch fluorescence ratio turn out when GGGAGAGTG was run?
A: 1.05

Q: For GGGAGATAAT, which switch fluorescence ratio is on record?
A: 1.01

Q: Which switch fluorescence ratio does the source give for GGGAGATGGG here?
A: 1

Q: For GGGAGATTTA, which switch fluorescence ratio is on record?
A: 1.01

Q: For GGGAGGGAAT, which switch fluorescence ratio is on record?
A: 1.53

Q: Which switch fluorescence ratio does the source give for GGGAGGGCGA here?
A: 0.982

Q: For GGGAGTAACG, which switch fluorescence ratio is on record?
A: 0.991

Q: How did the switch fluorescence ratio turn out when GGGAGTACCT was run?
A: 1.02

Q: Which switch fluorescence ratio does the source give for GGGAGTCAGT here?
A: 1.03

Q: Which switch fluorescence ratio does the source give for GGGATAATAT here?
A: 1.03

Q: For GGGATACTCC, which switch fluorescence ratio is on record?
A: 3.22

Q: GGGATAGATG was tested. Which switch fluorescence ratio did it give?
A: 0.984

Q: With GGGATCCGAA as the sequence, how does the switch fluorescence ratio read?
A: 0.961

Q: Which switch fluorescence ratio does the source give for GGGATCCGAT here?
A: 1.01

Q: Which switch fluorescence ratio does the source give for GGGATCTAGC here?
A: 0.998

Q: With GGGATGCGGT as the sequence, how does the switch fluorescence ratio read?
A: 0.982

Q: With GGGATGCTGT as the sequence, how does the switch fluorescence ratio read?
A: 0.944

Q: How did the switch fluorescence ratio turn out when GGGATGTAGA was run?
A: 0.996

Q: GGGATGTCAA was tested. Which switch fluorescence ratio did it give?
A: 1.02

Q: GGGATTGG was tested. Which switch fluorescence ratio did it give?
A: 0.983

Q: Which switch fluorescence ratio does the source give for GGGATTGGG here?
A: 0.978

Q: With GGGCAACGTG as the sequence, how does the switch fluorescence ratio read?
A: 0.967

Q: For GGGCACACCC, which switch fluorescence ratio is on record?
A: 1.04

Q: GGGCACAGGG was tested. Which switch fluorescence ratio did it give?
A: 1.01

Q: With GGGCACCTGG as the sequence, how does the switch fluorescence ratio read?
A: 1

Q: Which switch fluorescence ratio does the source give for GGGCACGCCG here?
A: 0.983

Q: Which switch fluorescence ratio does the source give for GGGCACTGAG here?
A: 1.05

Q: How did the switch fluorescence ratio turn out when GGGCAGCCGA was run?
A: 1.06

Q: How did the switch fluorescence ratio turn out when GGGCAGGATC was run?
A: 0.969

Q: For GGGCAGGCAA, which switch fluorescence ratio is on record?
A: 1.1

Q: GGGCAGGTGT was tested. Which switch fluorescence ratio did it give?
A: 1.37

Q: GGGCATACGG was tested. Which switch fluorescence ratio did it give?
A: 1.94

Q: Which switch fluorescence ratio does the source give for GGGCATATCC here?
A: 1.06

Q: GGGCATCATT was tested. Which switch fluorescence ratio did it give?
A: 0.973

Reference: the supplement of paper PMC10126150
